Holding throughout (assay): glycan array binding signal (z-score within array); higher = stronger binding
What all share (conditions): glycan notation: IUPAC condensed, linker removed

For experiment [1], the target named is Gal(b1-4)GalNAc(b1-3)[Fuc(a1-2)]Gal(b1-4)GlcNAc. The gist of the method: (§1)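 Arrays were curated from the Consortium for Functional Glycomics database, 3228 in total, and kept only where the protein sequence was available. Binding is expressed as a within-array Z-score. This score was averaged across arrays of the same protein sequence at different concentrations or buffers and across linkers, and negative values can be read as non-binding.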

The target of a further experiment is Gal(b1-4)Glc. The gist of the method: as §1
In another experiment the target is Gal(b1-4)Glc6S. The gist of the method: as §1
The target of the next experiment is Gal(b1-4)GlcNAc. The gist of the method: as §1
For experiment [2], the target named is Gal(b1-4)GlcNAc(a1-6)Gal(b1-4)GlcNAc. The gist of the method:
as §1

The target of another experiment is Gal(b1-4)GlcNAc(b1-2)Man. The gist of the method: as §1
The target in experiment [3] is Gal(b1-4)GlcNAc(b1-2)Man(a1-3)Man(b1-4)GlcNAc(b1-4)GlcNAc. The gist of the method:
as §1

Experiment [4] has as its target Gal(b1-4)GlcNAc(b1-2)Man(a1-3)[Gal(b1-4)GlcNAc(b1-2)Man(a1-6)]Man(b1-4)GlcNAc(b1-4)GlcNAc. The gist of the method: as §1
The target of experiment [5] is Gal(b1-4)GlcNAc(b1-2)Man(a1-3)[Gal(b1-4)GlcNAc(b1-2)Man(a1-6)]Man(b1-4)GlcNAc(b1-4)[Fuc(a1-6)]GlcNAc. The gist of the method:
as §1

The target in experiment [6] is Gal(b1-4)GlcNAc(b1-2)Man(a1-3)[Gal(b1-4)GlcNAc(b1-2)Man(a1-6)][Gal(b1-4)GlcNAc(b1-4)]Man(b1-4)GlcNAc(b1-4)[Fuc(a1-6)]GlcNAc. The gist of the method: as §1
Experiment [7] has as its target Gal(b1-4)GlcNAc(b1-2)Man(a1-3)[Gal(b1-4)GlcNAc(b1-2)Man(a1-6)][GlcNAc(b1-4)]Man(b1-4)GlcNAc(b1-4)[Fuc(a1-6)]GlcNAc. The gist of the method:
as §1

Experiment [8] has as its target Gal(b1-4)GlcNAc(b1-2)Man(a1-3)[GlcNAc(b1-2)Man(a1-6)]Man(b1-4)GlcNAc(b1-4)GlcNAc. The gist of the method:
as §1

Experiment [9] concerns the target Gal(b1-4)GlcNAc(b1-2)Man(a1-3)[GlcNAc(b1-4)][Gal(b1-4)GlcNAc(b1-2)Man(a1-6)]Man(b1-4)GlcNAc(b1-4)GlcNAc. The gist of the method:
as §1

Experiment [10] addresses Gal(b1-4)GlcNAc(b1-2)Man(a1-3)[Man(a1-6)]Man(b1-4)GlcNAc(b1-4)GlcNAc. The gist of the method: as §1
Experiment [11] concerns the target Gal(b1-4)GlcNAc(b1-2)Man(a1-6)Man(b1-4)GlcNAc(b1-4)GlcNAc. The gist of the method:
as §1

The target in experiment [12] is Gal(b1-4)GlcNAc(b1-2)Man(a1-6)[GlcNAc(b1-2)Man(a1-3)]Man(b1-4)GlcNAc(b1-4)GlcNAc. The gist of the method:
as §1

In experiment [13] the target is Gal(b1-4)GlcNAc(b1-2)Man(a1-6)[Man(a1-3)]Man(b1-4)GlcNAc(b1-4)GlcNAc. The gist of the method: as §1
For experiment [14], the target named is Gal(b1-4)GlcNAc(b1-2)[Gal(b1-4)GlcNAc(b1-4)]Man(a1-3)[Gal(b1-4)GlcNAc(b1-2)Man(a1-6)]Man(b1-4)GlcNAc(b1-4)GlcNAc. The gist of the method:
as §1

The target of experiment [15] is Gal(b1-4)GlcNAc(b1-2)[Gal(b1-4)GlcNAc(b1-4)]Man(a1-3)[Gal(b1-4)GlcNAc(b1-2)[Gal(b1-4)GlcNAc(b1-6)]Man(a1-6)]Man(b1-4)GlcNAc(b1-4)GlcNAc. The gist of the method: as §1
The target in experiment [16] is Gal(b1-4)GlcNAc(b1-2)[Gal(b1-4)GlcNAc(b1-4)]Man(a1-3)[GlcNAc(b1-4)][Gal(b1-4)GlcNAc(b1-2)Man(a1-6)]Man(b1-4)GlcNAc(b1-4)GlcNAc. The gist of the method:
as §1

For experiment [17], the target named is Gal(b1-4)GlcNAc(b1-2)[Gal(b1-4)GlcNAc(b1-4)]Man(a1-3)[GlcNAc(b1-4)][Gal(b1-4)GlcNAc(b1-2)[Gal(b1-4)GlcNAc(b1-6)]Man(a1-6)]Man(b1-4)GlcNAc(b1-4)GlcNAc. The gist of the method: as §1
Experiment [18] has as its target Gal(b1-4)GlcNAc(b1-2)[Gal(b1-4)GlcNAc(b1-6)]Man(a1-6)[Gal(b1-4)GlcNAc(b1-2)Man(a1-3)]Man(b1-4)GlcNAc(b1-4)GlcNAc. The gist of the method: as §1

Some of the results follow.

B1: LBL-152 (Laetiporus bicolor), B0D650 (protein)
chain: MSNEYNPPLGIAFRLCGLASDRVLFSRVSPSPEVFHHPKSEVYPDQWFVAIPGSGQNAGCYAIKSKNTGKVLFSRMSPDPRVGHIDGDGKYPDNWFKFEAGSGKYAGYFRLRAVASDTVLVSRTSTGTDTQVINYPATSAKYDDQYFTILFDHHHHHH
In the case of B1, the “glycan array binding signal (z-score)” value was -0.156 in [1]; -0.156 with Gal(b1-4)Glc; -0.155 with Gal(b1-4)Glc6S; -0.156 with Gal(b1-4)GlcNAc; -0.153 in experiment [2]; -0.148 with Gal(b1-4)GlcNAc(b1-2)Man. The “glycan array binding signal (z-score)” value in experiment [3] is -0.155; in [4] it was -0.113; in experiment [5], -0.144; in experiment [6], -0.01; in experiment [7], 0.48; in experiment [8] it was -0.158. Also, the “glycan array binding signal (z-score)” value was -0.138 in experiment [9]; -0.152 in experiment [10]; -0.156 in [11]; -0.156 in experiment [12]; -0.156 in experiment [13]; 0.149 in experiment [14]. The “glycan array binding signal (z-score)” value in experiment [15] was -0.033; in experiment [16], -0.081; in [17], -0.066; in experiment [18] it was -0.135.

These data come from the supplement of paper PMC8728848.
